The chains are these.
B1: PhoQ; a variant is named by its letters at X, in order, P23837 (parent)
chain: MKKLLRLFFPLSLRVRFLLATAAVVLVLSLAYGMVALIGYSVSFDKTTFRLLRGESNLFYTLAKWENNKLHVELPENIDKQSPTMTLIYDENGQLLWAQRDVPWLMKMIQPDWLKSNGFHEIEADVNDTSLLLSGDHSIQQQLQEVREDDDDAEMTHSVAVNVYPATSRMPKLTIVVVDTIPVELKSSYMVWSWFIYVLSANLLLVIPLLWVAAWWSLRPIEALAKEVRELEEHNRELLNPATTRELTSLVRNLNRLLKSERERYDKYRTTLTDLTHSLKTPLXXLQXXLRSLRSEKMSVSDAEPVMLEQISRISQQIGYYLHRASMRGGTLLSRELHPVAPLLDNLTSALNKVYQRKGVNISLDISPEISFVGEQNDFVEVMGNVLDNACKYCLEFVEISARQTDEHLYIVVEDDGPGIPLSKREVIFDRGQRVDTLRPGQGVGLAVAREITEQYEGKIVAGESMLGGARMEVIFGRQHSAPKDE

The other results are listed elsewhere or left out.

In the assay the parent is B1. Description: enrichment ratio after two sorts for PhoP signalling (ratio (wild type AVST 3.29)); higher = more functional. To be noted: with PhoP (E. coli).
Consider INAC, for which the enrichment ratio is not above 0.25. The value for DPMW was not above 0.25; that for FIAL was not above 0.25. The result for VPWW reads not above 0.25. The result for MDED reads not above 0.25; that for GHST, not above 0.25. For the variant ALRS, the enrichment ratio was not above 0.25. As for LGGD, the enrichment ratio is not above 0.25. For the variant WFFE, the enrichment ratio was not above 0.25. As to YEPF, the enrichment ratio was not above 0.25. Take WLAH: the enrichment ratio is not above 0.25.

For VRDW, the enrichment ratio is not above 0.25. Consider VARA, for which the enrichment ratio was not above 0.25. With VNTW, the enrichment ratio was not above 0.25. As to FPEG, the enrichment ratio is not above 0.25. As for ALWR, the enrichment ratio is not above 0.25. For the variant RTFH, the enrichment ratio was not above 0.25. QGAC: the enrichment ratio stood at 9.98. Regarding INWG, the enrichment ratio is not above 0.25. Take GKKE: the enrichment ratio is not above 0.25. Turning to DHQV, the enrichment ratio is not above 0.25. In the case of AGGI, the enrichment ratio is 12.9.

Regarding DQFW, the enrichment ratio was not above 0.25. DMFN: the enrichment ratio is not above 0.25. The value for YHFF was not above 0.25; that for NLRT was not above 0.25; that for HYVM was not above 0.25.

WDQV: the enrichment ratio was not above 0.25. For PNKK, the enrichment ratio is not above 0.25. Consider NHVL, for which the enrichment ratio is not above 0.25. For the variant IDAK, the enrichment ratio was not above 0.25. As for TLHN, the enrichment ratio is not above 0.25. The result for YQGV reads not above 0.25; that for QYFK, not above 0.25; that for YCWS, not above 0.25.

With LDIT, the enrichment ratio is not above 0.25. MYIK: the enrichment ratio is not above 0.25. In the case of DFFC, the enrichment ratio is not above 0.25. With YCPT, the enrichment ratio is not above 0.25.

Consider TNIV, for which the enrichment ratio is not above 0.25. As for RYMD, the enrichment ratio is not above 0.25. Regarding PVTI, the enrichment ratio is not above 0.25. NVCC: the enrichment ratio is not above 0.25. For HFPG, the enrichment ratio is not above 0.25. The value for TTWK was not above 0.25. For WKCW, the enrichment ratio is not above 0.25. With MMAL, the enrichment ratio was determined as 13.5.

Take HSED: the enrichment ratio was not above 0.25. Take TMQL: the enrichment ratio was determined as 12.8.

Take GPGR: the enrichment ratio is not above 0.25. As for ILGF, the enrichment ratio is not above 0.25. With ARSG, the enrichment ratio is not above 0.25. In the case of NQCP, the enrichment ratio was not above 0.25. Turning to THKV, the enrichment ratio was not above 0.25. With FATA, the enrichment ratio is not above 0.25. On to TQQR, for which the enrichment ratio was not above 0.25. As for IDRV, the enrichment ratio was not above 0.25.

With TMDF, the enrichment ratio was not above 0.25. The value for PNEP was not above 0.25. For the variant ANME, the enrichment ratio was not above 0.25.

Regarding DVSD, the enrichment ratio is not above 0.25.

Take IAQR: the enrichment ratio is not above 0.25.

Consider IVYK, for which the enrichment ratio was not above 0.25.

Take GDCF: the enrichment ratio is not above 0.25. For the variant DSYF, the enrichment ratio was not above 0.25.

For WLKH, the enrichment ratio is not above 0.25.

With TEQA, the enrichment ratio is 13.7. Turning to QRGW, the enrichment ratio was not above 0.25.

Turning to AQDI, the enrichment ratio was not above 0.25. Consider MQYS, for which the enrichment ratio amounted to 6.75. The value for LKSI was not above 0.25; that for NCMF was not above 0.25. The value for QQTM was not above 0.25; that for PQTD was not above 0.25; that for LYVM was not above 0.25. Consider DPNN, for which the enrichment ratio is not above 0.25. As for VERM, the enrichment ratio was not above 0.25. As to GKCW, the enrichment ratio was not above 0.25.

MDCK: the enrichment ratio is not above 0.25.

As to YVMN, the enrichment ratio was not above 0.25. The result for AHVG reads 3.51; that for WPSQ, not above 0.25; that for PTIY, not above 0.25.

Take FCME: the enrichment ratio is not above 0.25. For LYWH, the enrichment ratio is not above 0.25. In the case of GPAI, the enrichment ratio is not above 0.25.

Turning to AWSV, the enrichment ratio is not above 0.25. For SWTR, the enrichment ratio was not above 0.25. Consider IDRE, for which the enrichment ratio is not above 0.25. On to DWQR, for which the enrichment ratio is not above 0.25. Take RAVE: the enrichment ratio was not above 0.25.

As to FCPT, the enrichment ratio is not above 0.25. As to NKKH, the enrichment ratio was not above 0.25. Turning to VIPQ, the enrichment ratio was not above 0.25.

With TAGE, the enrichment ratio is not above 0.25. The result for PFFE reads not above 0.25; that for PRVY, 0.875; that for FHEL, not above 0.25. As for QSDN, the enrichment ratio stood at 6.63. The value for LIGD was not above 0.25; that for DGRP was not above 0.25; that for YCIV was not above 0.25. As for FYIS, the enrichment ratio is not above 0.25. Consider SNLP, for which the enrichment ratio was determined as 0.256. For EYKL, the enrichment ratio is not above 0.25.

For the variant HNCI, the enrichment ratio is not above 0.25. Take ARAR: the enrichment ratio was not above 0.25. The result for VCFF reads not above 0.25; that for TDFA, not above 0.25. In the case of SGYS, the enrichment ratio is 0.357. Turning to EYQG, the enrichment ratio is not above 0.25. Take IVKL: the enrichment ratio was not above 0.25. For the variant HLKI, the enrichment ratio is not above 0.25.

Turning to KFWL, the enrichment ratio was not above 0.25. The result for TYIF reads not above 0.25; that for DMRQ, not above 0.25; that for HVSI, not above 0.25. Consider HNYD, for which the enrichment ratio was not above 0.25. For FNEF, the enrichment ratio was not above 0.25. Consider WSEG, for which the enrichment ratio is not above 0.25. The result for RGSV reads not above 0.25; that for PLNV, not above 0.25.

On to ERVM, for which the enrichment ratio was not above 0.25. Consider GQFF, for which the enrichment ratio is not above 0.25.

For the variant SLKV, the enrichment ratio was not above 0.25. For the variant GMFH, the enrichment ratio was not above 0.25. For PLWM, the enrichment ratio is not above 0.25. In the case of DHCF, the enrichment ratio is not above 0.25. For VMGG, the enrichment ratio was not above 0.25.

Consider MATG, for which the enrichment ratio is not above 0.25. In the case of HGRG, the enrichment ratio was not above 0.25. The value for LQIT was not above 0.25; that for DTKI was not above 0.25.

As for RGCQ, the enrichment ratio is not above 0.25. With ECPH, the enrichment ratio is not above 0.25. For the variant QANN, the enrichment ratio was found to be 8.36. For the variant SLAK, the enrichment ratio came out at 2.88. The result for IREP reads not above 0.25; that for FLYS, not above 0.25. On to MGLC, for which the enrichment ratio stood at 19.1.

Turning to EQFD, the enrichment ratio was not above 0.25. The value for KNAR was not above 0.25; that for STCI was 12.3; that for HDRT was not above 0.25. As for ASIG, the enrichment ratio is 12. With NHGF, the enrichment ratio was not above 0.25. The value for FGYA was not above 0.25. PALR: the enrichment ratio is not above 0.25. Consider FKGP, for which the enrichment ratio is not above 0.25.

On to GDHA, for which the enrichment ratio is not above 0.25. The value for FVAY was not above 0.25. Turning to NSDA, the enrichment ratio was not above 0.25. With SQNM, the enrichment ratio was 1.65. Consider ITEF, for which the enrichment ratio was not above 0.25. For KMHH, the enrichment ratio is not above 0.25. Consider YKRF, for which the enrichment ratio is not above 0.25. Consider EHKK, for which the enrichment ratio was not above 0.25.

Take VHGM: the enrichment ratio was not above 0.25. As to NREG, the enrichment ratio is not above 0.25. With KAIL, the enrichment ratio is not above 0.25. The value for EMWF was not above 0.25. Take MFRN: the enrichment ratio is not above 0.25. IWDY: the enrichment ratio is not above 0.25.

For the variant EVQM, the enrichment ratio was not above 0.25. Take IILG: the enrichment ratio was determined as 0.308. The result for QYSR reads not above 0.25; that for IDYN, not above 0.25. For AWVY, the enrichment ratio is not above 0.25. For the variant NDEF, the enrichment ratio was not above 0.25. Consider VHNT, for which the enrichment ratio is not above 0.25.

Take WFNM: the enrichment ratio was not above 0.25.

On to QRLH, for which the enrichment ratio was not above 0.25.

With YTEA, the enrichment ratio was not above 0.25.

Consider RHWC, for which the enrichment ratio was not above 0.25. As for AMIH, the enrichment ratio is not above 0.25.

In the case of FGMR, the enrichment ratio was not above 0.25. Turning to YKRQ, the enrichment ratio is not above 0.25. On to SWTW, for which the enrichment ratio is not above 0.25. As for KHTN, the enrichment ratio was not above 0.25. Regarding HRNK, the enrichment ratio was not above 0.25. Take RLAE: the enrichment ratio is not above 0.25. Consider TMCP, for which the enrichment ratio was not above 0.25. For GWLN, the enrichment ratio was not above 0.25. Consider DAFF, for which the enrichment ratio was not above 0.25. In the case of KQCY, the enrichment ratio is not above 0.25.

Regarding SRHL, the enrichment ratio was not above 0.25. As to ASAD, the enrichment ratio is not above 0.25. ECHL: the enrichment ratio was not above 0.25. The result for GTGH reads not above 0.25; that for RTFY, not above 0.25. For the variant DRKR, the enrichment ratio was not above 0.25.

Take FGSV: the enrichment ratio is not above 0.25. For RKDH, the enrichment ratio was not above 0.25. For VPVD, the enrichment ratio is not above 0.25. In the case of GWIW, the enrichment ratio is not above 0.25.

(Values after a collection of fitness landscapes (doi:10.1126/science.1257360).)
